The text below walks through data of patent publication US20240277807A1 (published 2024).

The target of one assay is T1, GDF11 (UniProt O95390 299-407).
T1 chain: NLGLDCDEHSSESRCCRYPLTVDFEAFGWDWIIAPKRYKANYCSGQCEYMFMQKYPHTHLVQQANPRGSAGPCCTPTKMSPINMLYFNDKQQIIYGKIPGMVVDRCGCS
The experiment in a line: Biacore. (SPR reads the build-up and loss of mass on a sensor chip optically.)

Another assay has as its target T2, activin A (UniProt P08476 311-426).
T2 chain: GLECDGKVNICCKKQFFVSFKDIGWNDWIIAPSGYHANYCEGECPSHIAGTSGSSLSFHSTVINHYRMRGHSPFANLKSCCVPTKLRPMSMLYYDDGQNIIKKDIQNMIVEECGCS
The experiment in a line: Biacore.

B1: ActRIIA-hFc (Fc fusion)
chain: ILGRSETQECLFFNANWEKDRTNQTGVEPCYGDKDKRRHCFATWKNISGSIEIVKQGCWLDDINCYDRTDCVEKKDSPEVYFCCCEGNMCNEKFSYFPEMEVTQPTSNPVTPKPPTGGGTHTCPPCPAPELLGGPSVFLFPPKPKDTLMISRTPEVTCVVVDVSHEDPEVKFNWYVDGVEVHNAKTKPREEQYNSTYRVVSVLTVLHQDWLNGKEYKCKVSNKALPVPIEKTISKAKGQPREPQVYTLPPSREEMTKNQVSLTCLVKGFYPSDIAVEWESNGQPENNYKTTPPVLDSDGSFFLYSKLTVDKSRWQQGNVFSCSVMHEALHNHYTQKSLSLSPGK
For orientation: Kd means the free concentration of one partner at which half of the binding sites on the other are occupied at equilibrium, for simple one-to-one binding. On to B1, for which the results for the dissociation constant (Kd) in the assay with GDF11 and with activin A were 9.96 nM and 0.005 nM, respectively.
